{"source": "PubChem BioAssay AID686970", "about": "(National Center for Advancing Translational Sciences (NCATS), 2013)", "note": "Out of some 360,000 compounds screened, about 6,000 (1.7%) were called active. Inconclusive means that the source gave no clear call. Such entries were picked first, then a sample of the others. The call rests on the fitted dose curve; in most records, active means well fitted cell-killing curve with a large enough effect; inconclusive means small, poorly fitted or top-dose-only effect, or effect the other way; inactive means flat fitted curve, though single readings scatter. No potency is given beside an inconclusive call; the fits are too rough. Potency means the concentration at half of the fitted maximal effect; tags describe the fitted curve by direction and shape.", "data": [{"experiment": "qHTS for induction of synthetic lethality in tumor cells producing 2HG: qHTS for the HT-1080-NT fibrosarcoma cell line;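 further: NT is the 2HG producing partner of a matched IDH1 knockdown line; nearly all actives have a fitted effect of over 55% in size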;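 on activity, negative = less viability: 0% = DMSO-treated cells and -100% = media-only wells without cells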", "details": "HT-1080-NT fibrosarcoma viability, CellTiter-Glo ATP luminescence, 48 h; activity, negative = less viability: at 46.1 µM (top of the series) unless noted", "procedure,_shortened": "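HT-1080-NT fibrosarcoma cells (2HG-overproducing), 750 cells/well in RPMI with 5% FBS, dosed after 2 h and incubated 48 h at 37C. CellTiter-Glo luminescence normalized to DMSO and no-cell wells; concentration-response curves fitted and classed.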", "values": [{"smiles": "O=C(Cc1cccc2ccccc12)N/N=C/c1ccc(Sc2nc3ccccc3s2)o1", "activity, negative = less viability": "inactive: -1.4%"}, {"smiles": "Cc1ccc(S(=O)(=O)Nc2ccc3nc(C)oc3c2)cc1", "activity, negative = less viability": "inactive: 0.277%"}, {"smiles": "CCOc1ccc(/C=C/c2nc(C#N)c(NCCCOC)o2)cc1", "Potency": "inconclusive [cytotoxic, full curve]"}, {"smiles": "CC1CCc2onc(C(=O)NCc3ccco3)c2C1", "note": "(centres undefined)", "Potency": "active: 18.4 µM"}, {"smiles": "Cc1ccc(C(=O)/C=C/c2ccc3c(c2)OCO3)o1", "Potency": "inconclusive [cytotoxic, partial curve]"}, {"smiles": "CSc1nc(N)nc(SCC(=O)Nc2ccc(Cl)cc2)c1C#N", "Potency": "inconclusive [cytotoxic, single point]"}, {"smiles": "COc1ccc(C(=O)N/N=C/c2ccc(SC)cc2)cc1", "activity, negative = less viability": "inactive: 12.6%"}, {"smiles": "O=[N+]([O-])c1ccc(Cl)cc1NCC1CCCO1", "note": "(centres undefined)", "activity, negative = less viability": "inactive: -5.73%"}, {"smiles": "CC(=O)/C=N/Nc1ccccc1", "Potency": "inconclusive [cytotoxic, single point]"}, {"smiles": "Cc1ccc(S(=O)(=O)NCC(=O)NCC(=O)N(C)Cc2ccc3ccccc3c2)cc1C", "Potency": "inconclusive [cytotoxic, single point]"}, {"smiles": "Cc1ccc(-n2[nH]c(C)c(/C=N/Nc3ccc([N+](=O)[O-])cc3[N+](=O)[O-])c2=O)cc1", "Potency": "inconclusive [cytotoxic, partial curve]"}, {"smiles": "COc1ccc(-c2nnc(SCC(=O)N3CCC(Cc4ccccc4)CC3)o2)cc1OC", "activity, negative = less viability": "inactive: 4.82%"}, {"smiles": "O=C(NC(c1ccccc1)c1ccsc1)C1CCN(Cc2ccc(Oc3ccccc3)cc2)CC1", "note": "(centres undefined)", "Potency": "active: 18.4 µM"}, {"smiles": "Cc1c(CN2CCC(CO)(Cc3ccccc3)CC2)c2ccccc2n1C", "Potency": "inconclusive [cytotoxic, single point]"}, {"smiles": "CCOC(=O)C1CCN(C/C=C/c2ccccc2[N+](=O)[O-])CC1", "activity, negative = less viability": "inactive: 0.846%"}, {"smiles": "O=S(=O)(Nc1ccccc1-c1ccccc1)c1ccccc1", "Potency": "inconclusive [cytotoxic, single point]"}, {"smiles": "CC(C)(C)NC(=O)C(c1ccncc1)N(C(=O)Cn1nnc(-c2ccc(F)cc2)n1)c1ccc(F)cc1", "note": "(centres undefined)", "activity, negative = less viability": "inactive: 3.13%"}, {"smiles": "O=C(c1ccco1)N1CCCC(c2nc(-c3ccc(S(=O)(=O)NCc4ccccc4)cc3)no2)C1", "note": "(centres undefined)", "Potency": "inconclusive [cytotoxic, single point]"}, {"smiles": "CCCOc1ccc(CCc2n[nH]c(=S)n2Cc2ccccc2)cc1", "Potency": "inconclusive [cytotoxic, partial curve]"}, {"smiles": "O=C(N/N=C\\C=C\\c1ccco1)C1COc2ccccc2O1", "note": "(centres undefined)", "Potency": "inconclusive [cytotoxic, single point]"}, {"smiles": "CC1CCN(CCOCCOc2ccc(Cl)cc2Br)CC1", "Potency": "inconclusive [cytotoxic, single point]"}, {"smiles": "Cc1ccc(C(=O)Nc2cccc(NC(=O)c3ccc(C)c([N+](=O)[O-])c3)n2)cc1[N+](=O)[O-]", "activity, negative = less viability": "inactive: 9.28%"}, {"smiles": "CC(C)C[C@@H](CN=[N+]=[N-])N1CCN(C)CCC1=O", "Potency": "inconclusive [rising, single point]"}, {"smiles": "C=CCN1C=C2C(=O)C(C)(OC(=O)c3cnc4ccccc4n3)C(=O)C=C2C=C1/C=C/COC", "note": "(centres undefined)", "activity, negative = less viability": "inactive: -11.4%"}, {"smiles": "COc1ccc(C)cc1Nc1n[n+](-c2ccccc2)c(-c2ccc(OC)c(OC)c2OC)s1", "Potency": "inconclusive [cytotoxic, single point]"}, {"smiles": "CCOC(=O)c1sc(N/N=C/c2cc(Br)c(O)c(OC)c2)nc1C", "Potency": "inconclusive [cytotoxic, single point]"}, {"smiles": "O=C(C1=NOC2(C1)C(=O)N(Cc1ccccc1)c1ccccc12)N1CCOCC1", "note": "(centres undefined)", "activity, negative = less viability": "inactive: 2.94%"}, {"smiles": "COc1cc2c(cc1OC)CN(c1nc(CN3CCOCC3)nc3sc4c(c13)CCC(C)C4)CC2", "note": "(centres undefined)", "Potency": "inconclusive [cytotoxic, partial curve]"}, {"smiles": "CC1CCN(C(=O)C(C)Sc2nc(-c3ccccc3)cc(C(F)(F)F)n2)CC1", "note": "(centres undefined)", "Potency": "inconclusive [cytotoxic, single point]"}, {"smiles": "O=C(CN1C(=O)c2ccccc2C1=O)N1CCN(C2c3ccccc3-c3ccccc32)CC1", "activity, negative = less viability": "inactive: 13.3%"}, {"smiles": "Cc1[nH]c2ccccc2c1C(=O)C(=O)N1CC=C(c2ccccc2)CC1", "Potency": "inconclusive [cytotoxic, single point]"}, {"smiles": "CCOc1ccc(NC(=O)c2cc(F)c(F)cc2Cl)cc1OCC", "activity, negative = less viability": "inactive: 19.9%"}, {"smiles": "Cc1ccc(-c2nnc(Nc3ccccc3)o2)cc1", "Potency": "inconclusive [cytotoxic, single point]"}, {"smiles": "O=C(Cc1ccc(Br)c2ccccc12)N/N=C/c1ccccn1", "Potency": "inconclusive [cytotoxic, partial curve]"}, {"smiles": "CCOC(=O)c1cc2cc(-c3c(C(=O)OCC)oc4cc(O)cc(O)c4c3=O)ccc2o1", "Potency": "inconclusive [cytotoxic, single point]"}, {"smiles": "CC(C)c1ccc(CNC(=O)CSCC(=O)Nc2ccc3ccccc3c2)cc1", "Potency": "inconclusive [cytotoxic, single point]"}, {"smiles": "CCOC(=O)C1CCCN(C2=NC(=O)/C(=C/c3ccc(OC)c(OC)c3)S2)C1", "note": "(centres undefined)", "activity, negative = less viability": "inactive: 8.13%"}, {"smiles": "CCc1ccc(C(O)c2ncc(-c3ccc4ccccc4c3)[nH]2)cc1", "note": "(centres undefined)", "Potency": "inconclusive [cytotoxic, single point]"}, {"smiles": "COC(=O)c1sc(NC(=S)NC(=O)c2ccc(C)cc2)nc1C", "activity, negative = less viability": "inactive: 17.2%"}, {"smiles": "Cc1ccc(C(=O)Nc2ccc(C(=O)N3CCCCC3)cc2)o1", "Potency": "inconclusive [cytotoxic, single point]"}, {"smiles": "COC(=O)c1c(-c2ccccc2OC)sc2ccccc12", "Potency": "inconclusive [cytotoxic, single point]"}, {"smiles": "Cc1ccc(NC(=O)c2ccc(C(=O)c3ccccc3)cc2)nc1", "Potency": "inconclusive [cytotoxic, full curve]"}, {"smiles": "COc1ccc(OC)c(Nc2cc3ccccc3c(=O)[nH]2)c1", "Potency": "inconclusive [cytotoxic, partial curve]"}, {"smiles": "COc1ccc(CC(=O)N/N=C/c2c(C)n(C)c3ccccc23)cc1OC", "Potency": "inconclusive [cytotoxic, partial curve]"}, {"smiles": "O=C(Nc1cccc(Cl)c1N1CCCCC1)c1ccc2c(c1)OCCO2", "Potency": "inconclusive [cytotoxic, single point]"}, {"smiles": "O=[N+]([O-])c1ccccc1S(=O)(=O)Nc1ccc(-c2ccc3nncn3n2)cc1", "Potency": "inconclusive [cytotoxic, single point]"}, {"smiles": "Cc1ccc2occ(/C=C/C(=O)c3ccccc3O)c(=O)c2c1", "activity, negative = less viability": "inactive: 6.6%"}, {"smiles": "Cc1cccc(COC[C@H](CC(C)C)N2CCN(C(=O)c3ccc(C(C)(C)C)cc3)CCC2=O)c1", "Potency": "inconclusive [cytotoxic, single point]"}, {"smiles": "FC(F)(F)c1nc(-c2ccccc2)ncc1-c1nnnn1-c1ccccc1", "Potency": "inconclusive [cytotoxic, single point]"}, {"smiles": "Cc1ccc(-c2nnc(SCC(=O)N/N=C/c3ccc(C)s3)n2-c2ccccc2)cc1", "Potency": "inconclusive [cytotoxic, single point]"}, {"smiles": "COc1ccccc1NC(=O)CCSc1nnc(-c2ccco2)o1", "Potency": "inconclusive [cytotoxic, single point]"}, {"smiles": "C[C@H](CO)N1C[C@H](C)[C@H](CN(C)C(=O)c2ccccc2)Oc2cc(Br)ccc2S1(=O)=O", "activity, negative = less viability": "inactive: 17.1%"}, {"smiles": "CCCCN1CC(N2CCN(C3CCN(C)CC3)CC2)CS1(=O)=O", "note": "(centres undefined)", "Potency": "inconclusive [rising, partial curve]"}, {"smiles": "Fc1ccc(CNC(=S)Nc2cccc(C(F)(F)F)c2)cc1", "Potency": "inconclusive [cytotoxic, single point]"}, {"smiles": "CC(=O)Nc1ccc(S(=O)(=O)N(Cc2cc3ccc(C)cc3[nH]c2=O)CC2CCCO2)cc1", "note": "(centres undefined)", "activity, negative = less viability": "inactive: 4.78%"}, {"smiles": "COc1ccc(C)cc1S(=O)(=O)Nc1cc2c3c(c1)CCC(=O)N3CCC2", "Potency": "inconclusive [cytotoxic, partial curve]"}, {"smiles": "COc1ccc(C(=O)N2CCC2(C)C(=O)NC(C)C)cc1", "note": "(centres undefined)", "Potency": "inconclusive [rising, single point]"}, {"smiles": "Cc1[nH]n(-c2ccc([N+](=O)[O-])cc2)c(=O)c1C=NCCN1CCN(C(=O)c2ccccc2F)CC1", "Potency": "inconclusive [cytotoxic, partial curve]"}, {"smiles": "Cc1nnc(Sc2nc3ccccc3o2)c2ccccc12", "Potency": "inconclusive [cytotoxic, single point]"}, {"smiles": "Cc1nn(-c2ccccc2)c(C)c1/C=N/n1c(-c2ccc(C(C)(C)C)cc2)n[nH]c1=S", "Potency": "inconclusive [cytotoxic, single point]"}, {"smiles": "Cc1cccc(NC(=O)COC(=O)CN2C(=O)c3ccccc3C2=O)c1C", "activity, negative = less viability": "inactive: 9.51%"}, {"smiles": "CC(C)C(=O)Nc1cccc(COc2ccccc2CN(Cc2ccccc2)C(=O)OC(C)(C)C)c1", "activity, negative = less viability": "inactive: -12.2%"}, {"smiles": "COC(=O)c1[nH]c2c(c1C)C(=O)CC(c1ccccc1)C2", "note": "(centres undefined)", "Potency": "active: 0.447 µM"}, {"smiles": "O=C(NC(c1ccc(-c2ccccc2)cc1)c1cnccn1)C1CCN(Cc2ccc(Oc3ccccc3)cc2)CC1", "note": "(centres undefined)", "Potency": "active: 13 µM"}, {"smiles": "CC1(C)OC(c2ccccc2)=C/C(=C\\C=N\\NC(=O)c2ccncc2)O1", "Potency": "inconclusive [cytotoxic, partial curve]"}, {"smiles": "COC1=C(OC)C(=O)c2ccccc2C1=O", "Potency": "inconclusive [cytotoxic, single point]"}, {"smiles": "CC[C@@H]1C(c2cccc(Cl)c2)=NN(c2ccc(Br)cc2)[C@H]1C(=O)N1CCOC1=O", "Potency": "inconclusive [cytotoxic, partial curve]"}, {"smiles": "CC(C)NC(=O)c1c(O)c2ccccc2[nH]c1=O", "Potency": "inconclusive [cytotoxic, full curve]"}, {"smiles": "O=C(c1ccccn1)N1CCCC(N2CCN(c3ccc(F)cc3)CC2)C1", "note": "(centres undefined)", "activity, negative = less viability": "inconclusive: -1.41% [cytotoxic]"}]}]}
